Data taken from PubChem BioAssay AID463173 (ICCB-Longwood Screening Facility, Harvard Medical School, 2010).
In all, about 52,000 compounds went through this assay and about 4,300 (8.3%) were called active. No stated cut-off is given here; in the data, active means survival mostly below about 52% (no sharp cut-off); inactive means mostly above about 56%. The list shows a part of the results.

These compounds were tested on DeltatarO mutant (assay: growth inhibition of S. aureus wild type versus tarO mutant, primary screen, teichoic acid synthesis inhibitors, RN4220, OD600 (AID 463173)). Details: OD600, 18 h, stronger effect = lower value; concentration not given here unless noted.

SMILES	survival
CCCc1nc2ccccc2c(=O)n1-c1ccccc1	inactive: 88%
O=C(Nc1ccon1)c1cccn(Cc2cccc(Cl)c2)c1=O	inactive: 93%
O=c1[nH]c2ccccc2c(=O)n1-c1ccc(Cl)c(Cl)c1	inactive: 80%
Cc1cccc(NC(=O)Cn2cc(C(=O)c3ccccc3)c3ccccc32)c1C	inactive: 61%
Cc1oc(-c2ccc(Cl)cc2)nc1CN1C(=O)CN=C(c2ccccc2)c2ccccc21	inactive: 49%
O=c1cccc2n1CC1CC2CN(c2nc(N3CCCCC3)nc(N3CCCCC3)n2)C1 (stereo not drawn)	inactive: 79%
Cc1ccc(NC(=O)N(Cc2ccc3c(c2)OCO3)C2CCN(Cc3ccccc3)CC2)cc1F	inactive: 87%
COC(=O)CC1=C(C(=O)OC)C2(C(=O)Nc3ccc(F)cc32)C(C#N)=C(N)O1 (stereo not drawn)	inactive: 65%
CN(C)C(=O)Oc1cccc2cccnc12	inactive: 76%
Cc1cc(C)cc(-n2c(/C=C/c3cccc(F)c3)nc3ccccc3c2=O)c1	inactive: 83%
COc1ccc(NC(=O)CN2C(=O)C(C)N=C(c3ccccc3F)c3cc(Cl)ccc32)c(OC)c1 (stereo not drawn)	inactive: 89%
Cc1nnc(NC(=O)c2cccn(Cc3ccc(Cl)cc3)c2=O)s1	inactive: 70%
O=S1(=O)CC2(N3CCOCC3)CCCCC21 (stereo not drawn)	inactive: 84%
CC(=O)N(C1=NCCCS1)c1ccccc1F	inactive: 104%
Cc1ccc(-n2c(/C=C/c3ccc(Br)s3)nc3ccccc3c2=O)cc1C	inactive: 90%
COc1ccc(OC)c(NC(=O)Cn2cc(C(=O)c3ccccc3F)c3ccccc32)c1	active: 70%
CC(c1ccccc1F)n1cc(C(=O)Nc2ccc3nc[nH]c3c2)nn1 (stereo not drawn)	inactive: 81%
COC(=O)Cn1cc(C=C2C(=O)N(C)C(=O)N(C)C2=O)c2ccccc21	inactive: 83%
O=c1c2ccccc2nc(/C=C/c2cccc3ccccc23)n1-c1ccccc1Cl	inactive: 101%
COc1ccc(Cl)cc1NC(=O)CN1C(=O)CN=C(c2ccccc2)c2cc(Cl)ccc21	inactive: 71%
O=C1CC(=O)N(C2CCCCC2)C(=O)N1	inactive: 77%
Cc1ccc(-n2c(/C=C/c3ccc(Br)s3)nc3ccccc3c2=O)cc1	inactive: 85%
O=C1NC(=O)N(Cc2ccco2)C(=O)/C1=C\c1ccco1	inactive: 98%
Cc1cccc(-n2c(/C=C/c3ccccc3O)nc3ccccc3c2=O)c1	active: 0%
CCc1ccc(NC(=O)c2cccn(Cc3cccc([N+](=O)[O-])c3)c2=O)cc1	inactive: 89%

SMILES	survival
CNC(=O)Oc1c(Cl)cc(Cl)cc1Cl	inactive: 96%
CCOc1ccc(N(C(C)=O)C2=NCCCS2)cc1	inactive: 101%
Cc1c(C(c2ccc(Cl)cc2Cl)c2c(O)c3ccccc3oc2=O)c(=O)n(-c2ccccc2)n1C (stereo not drawn)	inactive: 55%
CCCCc1ccc(NC(=O)c2cccn(Cc3ccc(Cl)cc3)c2=O)cc1	inactive: 87%
Cc1ccc(OCC(=O)N2CCN(CCc3ccncc3)CC2)cc1C	inactive: 53%
Cc1ccccc1CN1C(=O)CN=C(c2ccccc2)c2cc(Cl)ccc21	inactive: 91%
COc1ccc(C(=O)Nc2ccc(Cl)cc2C(=O)c2ccccc2)c(OC)c1	active: 2%
COc1ccc(Br)cc1CN1CCN(C(=O)Cc2ccccc2)CC1	inactive: 73%
CCOc1cccc(C(O)CNC)c1 (stereo not drawn)	inactive: 51%
CC1CCC(NCCc2ccc3c(c2)OCO3)CC1 (stereo not drawn)	inactive: 101%
Cc1cc(-n2c(/C=C/c3ccc(Br)s3)nc3ccccc3c2=O)ccc1Br	inactive: 95%
O=C(Nc1ccon1)c1cccn(Cc2ccccc2)c1=O	inactive: 80%
Nc1ccc(NC2=NCCCS2)cc1	inactive: 99%
Cc1cccc(-n2c(/C=C/c3cn(C)c4ccccc34)nc3ccccc3c2=O)c1	active: 21%
Cn1c(=O)c2ncnnc2n(C)c1=O	inactive: 62%
Cc1ccc(-c2nc(CN3C(=O)CN=C(c4ccccc4)c4cc(Cl)ccc43)c(C)o2)cc1	inactive: 67%
Cc1cc(NC(=O)c2cccn(Cc3cccc(Cl)c3)c2=O)no1	inactive: 87%
O=C(COc1cccc(Cl)c1)N1CCN(CCc2ccncc2)CC1	active: 47%
Cc1ccc(Cn2cccc(C(=O)Nc3cc([N+](=O)[O-])ccc3C)c2=O)cc1	inactive: 82%
O=C(CCc1nc(C2=CCN(Cc3cccc(Cl)c3)CC2)no1)Nc1ccccc1F	inactive: 81%
CN1CCc2cc3c(c4c2C1Cc1ccccc1-4)OCO3 (stereo not drawn)	active: 12%
O=c1c2ccccc2nc(/C=C\c2ccc(F)cc2)n1-c1ccccc1F	inactive: 94%
COc1ccc(OCC(=O)N2CCN(Cc3cc(=O)n4nc(-c5ccccc5C)sc4n3)CC2)cc1	inactive: 129%
CC(=O)NS(=O)(=O)c1ccc(NC(=O)c2cccn(Cc3ccc(Cl)cc3)c2=O)cc1	inactive: 79%
Cc1cc(C)cc(NC(=O)CN2C(=O)CN=C(c3ccccc3)c3cc(Cl)ccc32)c1	inactive: 87%

SMILES	survival
O=C(COc1ccc(Br)cc1)Nc1ccc(Cl)cc1C(=O)c1ccccc1	inactive: 83%
Cc1ccnc(NS(=O)(=O)c2ccc(N=Cc3c(O)n(C)c(=O)n(C)c3=O)cc2)n1	inactive: 93%
COc1ccc(C(C(=O)NC2CCCCC2)N(CCN2CCOCC2)C(=O)Cc2c[nH]c3ccccc23)cc1OC (stereo not drawn)	inactive: 59%
Cc1ccc(OCC(=O)N2CCN(Cc3ccc(F)cc3)CC2)cc1	inactive: 156%
Cc1ccc(C(C)(C)C)c(OCC(=O)Nc2ccc(Cl)cc2C(=O)c2ccccc2)c1	inactive: 66%
c1cnc2c(c1)ncn2C1CCNCC1	inactive: 75%
COc1ccc(CCNC2CCCCC2)cc1OC	inactive: 91%
COc1cccc(-n2c(/C=C\c3ccc(Cl)cc3)nc3ccccc3c2=O)c1	active: 30%
Cc1cccc(OCC(=O)N2CCN(Cc3cc(=O)n4nc(-c5ccccc5Cl)sc4n3)CC2)c1	inactive: 69%
CCC(N)C(=O)c1ccc(Cl)cc1 (stereo not drawn)	inactive: 79%
Cc1ccccc1-c1nn2c(=O)cc(CN3CCN(C(=O)COc4ccccc4Cl)CC3)nc2s1	inactive: 125%
CCC12CN3CN(C1)CC(CC)(C3)C2O (stereo not drawn)	inactive: 94%
Cc1ccc(-n2c(/C=C\c3ccc(F)c(F)c3)nc3ccccc3c2=O)c(C)c1	inactive: 98%
Cc1ccc2c(=O)n(-c3cccc(Cl)c3)c(=O)[nH]c2c1	inactive: 66%
Cc1ccc2nc(NC(=O)c3cccn(Cc4ccccc4F)c3=O)sc2c1	inactive: 76%
COc1cccc(N=Cc2c(O)n(Cc3ccco3)c(=O)[nH]c2=O)c1	inactive: 93%
O=C1NC(=O)C(CCc2ccncc2)(c2ccccc2)C(=O)N1	inactive: 71%
CN1CCC(NCCO)CC1	inactive: 100%
C=CCN1C(=O)NC(=O)/C(=C/c2ccc(OCC(=O)O)c(OCC)c2)C1=O	inactive: 88%
CCN(CC)C(=O)c1ccc(NC(=O)COc2ccc(-c3nn(C)c(=O)c4ccccc34)cc2)cc1	inactive: 72%
COc1cc2[nH]c(=O)n(-c3ccc(C)cc3)c(=O)c2cc1OC	inactive: 94%
O=C(Nc1ccc(Br)cc1C(=O)c1ccccc1Cl)c1ccc(Br)cc1	inactive: 144%
CN1CCC2(CC1)CC(=O)c1ccccc1O2	inactive: 85%
Cc1ccccc1-c1nc(CN2C(=O)CN=C(c3ccccc3)c3ccccc32)c(C)o1	active: -1%
CCc1ccc(-n2nc(C)c3c2NC(=O)CSC3c2ccc(C(=O)OC)cc2)cc1 (stereo not drawn)	inactive: 64%

SMILES	survival
COc1ccccc1-c1nn2c(=O)cc(CN3CCN(C(=O)COc4ccccc4Cl)CC3)nc2s1	inactive: 78%
CCC12CN3CC(CC)(CN(C1)C3c1c(C)[nH]c(=O)[nH]c1=O)C2=O (stereo not drawn)	inactive: 86%
COc1cc(OC)cc(C(=O)Nc2ccc(Cl)cc2C(=O)c2ccccc2Cl)c1	inactive: 171%
O=C(O)c1cncc(O)c1	inactive: 94%
O=c1c2ccccc2nc(/C=C/c2cccc3ccccc23)n1-c1ccc(Cl)cc1	inactive: 78%
CCOc1ccc2nc(NC(=O)c3cccn(Cc4ccc(C)cc4)c3=O)sc2c1	inactive: 67%
Nc1c(C(=O)Nc2ccc(F)c(Cl)c2)sc2nc3c(cc12)N1CCC3CC1	inactive: 65%
O=C(Nc1ccccc1)N(Cc1ccc2c(c1)OCO2)C1CCN(Cc2ccccc2)CC1	inactive: 94%
O=C(Nc1ccon1)c1cccn(Cc2cccc([N+](=O)[O-])c2)c1=O	inactive: 102%
O=C(Nc1ccc2c(c1)OCO2)c1cccn(Cc2ccccc2)c1=O	inactive: 81%
COC(=O)c1ccccc1NC(=O)c1cccn(Cc2cccc(Cl)c2)c1=O	inactive: 73%
CN1CCC2(CC1)CC(NC=O)c1ccccc1O2 (stereo not drawn)	inactive: 87%
CC12CN3CN(C1)CC(C)(C3)C2=O	inactive: 95%
CC1CN2CCC3=C(CCCC3)C2(C)C1 (stereo not drawn)	inactive: 77%
O=c1c2ccccc2nc(CN2CCCCC2)n1-c1ccccc1	inactive: 102%
c1ccc(CN2CCNCC2)nc1	inactive: 83%
O=C(Nc1ccc2c(c1)OCCO2)c1cccn(Cc2ccccc2)c1=O	inactive: 79%
COc1ccc(C=C2C(=O)NC(=S)NC2=O)cc1	inactive: 96%
Cc1ccc(-c2nc(CN3C(=O)CN=C(c4ccccc4Cl)c4cc(Cl)ccc43)c(C)o2)cc1	inactive: 74%
Cc1cccc(Cn2cccc(C(=O)Nc3nnc(C)s3)c2=O)c1	inactive: 99%
COc1ccc(C(CN)CC(=O)O)cc1 (stereo not drawn)	inactive: 92%
CCOc1ccccc1NC(=O)c1cccn(Cc2ccccc2C)c1=O	inactive: 70%
CCSc1nnc(NC(=O)c2cccn(Cc3ccccc3Cl)c2=O)s1	inactive: 79%
